# Assay results: the BET-seq Pho4 binding data (Le et al. 2018)
# The other results are listed elsewhere or left out. Values were computed here from the reads of four pooled replicates and scatter widely.
# Biological target: T1, Pho4 (S. cerevisiae) (UniProt P07270)
# T1 sequence: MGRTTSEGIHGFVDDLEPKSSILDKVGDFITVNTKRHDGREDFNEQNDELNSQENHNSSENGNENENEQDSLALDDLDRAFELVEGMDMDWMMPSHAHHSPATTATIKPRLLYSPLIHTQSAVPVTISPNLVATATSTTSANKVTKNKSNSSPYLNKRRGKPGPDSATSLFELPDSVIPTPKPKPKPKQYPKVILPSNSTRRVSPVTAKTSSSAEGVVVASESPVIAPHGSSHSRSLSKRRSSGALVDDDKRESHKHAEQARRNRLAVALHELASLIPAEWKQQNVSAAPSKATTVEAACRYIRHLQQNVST
# Assay: relative binding free energy (BET-seq); higher = weaker binding
# Conditions: reference: library average
row,Sequence,relative binding free energy
1,ACGGACACGTGTGTTG,0.13 kcal/mol
2,GTAGGCACGTGGGATG,-0.17 kcal/mol
3,TAAGTCACGTGGGCTA,-0.01 kcal/mol
4,TTTCACACGTGGTAGT,0.14 kcal/mol
5,GTCCGCACGTGTGGTG,-0.13 kcal/mol
6,TTGGGCACGTGGGTAT,-0.16 kcal/mol
7,TGTATCACGTGTGAGA,0.38 kcal/mol
8,GGAGTCACGTGCGTTT,0.2 kcal/mol
9,CAATACACGTGGGGGT,-0.07 kcal/mol
10,TTATTCACGTGGTGCG,0.24 kcal/mol
11,TTCGTCACGTGTATGC,0 kcal/mol
12,CCAGTCACGTGGGGGG,-0.13 kcal/mol
13,TGAGGCACGTGTAAAA,0.05 kcal/mol
14,TCGTGCACGTGGGTCT,-0.23 kcal/mol
15,ATTCGCACGTGTTGAG,-0.06 kcal/mol
16,CGGAGCACGTGTTGGG,0 kcal/mol
17,GGCGACACGTGGGAGA,0.08 kcal/mol
18,TGCCACACGTGTGGTT,0.02 kcal/mol
19,AAGTGCACGTGTATAT,0.02 kcal/mol
20,ACATTCACGTGATAGT,0.29 kcal/mol
21,AGGTTCACGTGATATA,0.27 kcal/mol
22,TGGTCCACGTGTTCGG,0.08 kcal/mol
23,TGAAACACGTGTGGAT,0.02 kcal/mol
24,AGGAACACGTGAGGCG,0.3 kcal/mol
25,CGGCTCACGTGGTTAG,0.19 kcal/mol
26,GGTCGCACGTGGTTAT,-0.04 kcal/mol

row,Sequence,relative binding free energy
1,GGTCGCACGTGCGGGT,-0.05 kcal/mol
2,TTGACCACGTGATGTT,0.09 kcal/mol
3,GTCGGCACGTGTTTGT,-0.01 kcal/mol
4,CTGTGCACGTGCGTTG,0.04 kcal/mol
5,CGAAGCACGTGGAGGT,-0.15 kcal/mol
6,AATAACACGTGGTTTA,-0.01 kcal/mol
7,AGTTCCACGTGAGAGT,0.31 kcal/mol
8,CGTATCACGTGATTGG,0.08 kcal/mol
9,TTTATCACGTGGTAAC,0.2 kcal/mol
10,TAATTCACGTGGTGAT,0.19 kcal/mol
11,AGGTTCACGTGATAAT,0.4 kcal/mol
12,CTTGGCACGTGCAGGT,-0.11 kcal/mol
13,GAAGACACGTGGTAGT,-0.1 kcal/mol
14,TAGGTCACGTGGGGCA,-0.09 kcal/mol
15,CTGTACACGTGTGGTG,0.03 kcal/mol
16,TGTAGCACGTGTCTGA,-0.09 kcal/mol
17,GTGGACACGTGAGAGG,0.31 kcal/mol
18,TTTCACACGTGTTCTT,0.08 kcal/mol
19,GGTATCACGTGCTTGT,0.2 kcal/mol
20,TATTACACGTGCTTGT,-0.06 kcal/mol
21,AGCTACACGTGTGGGC,0.22 kcal/mol
22,GCGGTCACGTGCAGTG,0.06 kcal/mol
23,GTAGTCACGTGAGTTC,0.35 kcal/mol
24,GGATGCACGTGAGGCA,0.22 kcal/mol
25,GAGTACACGTGTTGAT,0.19 kcal/mol
26,CAGGTCACGTGAGGGT,0.19 kcal/mol

row,Sequence,relative binding free energy
1,AAGTCCACGTGGGGTA,-0.2 kcal/mol
2,ATAGTCACGTGGTATG,0.04 kcal/mol
3,TGGTCCACGTGGGATG,-0.15 kcal/mol
4,TTTATCACGTGTAATG,0.2 kcal/mol
5,ACTTACACGTGGGGGA,0.02 kcal/mol
6,GGGCTCACGTGTTGTA,0.29 kcal/mol
7,TACGGCACGTGGTGTG,-0.07 kcal/mol
8,TTTAGCACGTGAAGGC,0.47 kcal/mol
9,TTTGCCACGTGTGTCT,0.04 kcal/mol
10,TATTGCACGTGCTTGA,0 kcal/mol
11,GGAATCACGTGGAGGC,0.19 kcal/mol
12,TAGTGCACGTGGAGAG,-0.01 kcal/mol
13,TGTGCCACGTGTGTCG,-0.1 kcal/mol
14,ACGTTCACGTGGTATG,0.17 kcal/mol
15,GCCATCACGTGTGGGG,0.21 kcal/mol
16,AGGCGCACGTGAGTTA,0.11 kcal/mol
17,TATTTCACGTGCCGGT,0.18 kcal/mol
18,TCTTTCACGTGGATGA,0.29 kcal/mol
19,GTCGGCACGTGGTTGA,-0.06 kcal/mol
20,ATGTTCACGTGATTGC,0.31 kcal/mol
21,CGTTTCACGTGCAGGT,0.1 kcal/mol
22,AGTAACACGTGATGGT,0.11 kcal/mol
23,GGTGTCACGTGGTGGA,0.15 kcal/mol
24,ATTGCCACGTGGAGCT,0.14 kcal/mol
25,GATTTCACGTGAGGGC,0.43 kcal/mol
26,ATAGGCACGTGGATAT,-0.23 kcal/mol

row,Sequence,relative binding free energy
1,ACCGGCACGTGTGGGA,0.11 kcal/mol
2,CGATTCACGTGGGAGG,0.28 kcal/mol
3,GCGAACACGTGGGGTT,-0.01 kcal/mol
4,AGCGACACGTGTGGAG,0.16 kcal/mol
5,TATAACACGTGCGTTG,-0.1 kcal/mol
6,TTTGGCACGTGCGCTA,-0.19 kcal/mol
7,GAGGTCACGTGAGCGT,0.17 kcal/mol
8,TGTTGCACGTGTTCTA,-0.01 kcal/mol
9,GCGGTCACGTGGTTAA,0.15 kcal/mol
10,AGCAGCACGTGATGGG,-0.03 kcal/mol
11,GGGTTCACGTGAGATG,0.44 kcal/mol
12,GTGTACACGTGTTTGC,-0.05 kcal/mol
13,GAATACACGTGGCGGG,0.11 kcal/mol
14,TTTCACACGTGAGTGG,0.45 kcal/mol
15,GGTTCCACGTGGGTAT,0.01 kcal/mol
16,GTATGCACGTGGATCG,0.13 kcal/mol
17,TTTGCCACGTGTAGCG,0.05 kcal/mol
18,GGCTGCACGTGTTGCA,0.07 kcal/mol
19,TTAGGCACGTGATGGG,-0.01 kcal/mol
20,GGTTTCACGTGGCATG,0.2 kcal/mol
21,CTTGTCACGTGATATA,0.24 kcal/mol
22,ATAGACACGTGGCGTT,-0.04 kcal/mol
23,TTATACACGTGATGTT,0.04 kcal/mol
24,TGTAACACGTGATAGG,0.05 kcal/mol
25,TTGTACACGTGATAAG,0.26 kcal/mol
26,GGTGCCACGTGTGAAT,-0.02 kcal/mol

row,Sequence,relative binding free energy
1,TAGGGCACGTGATGTT,0.06 kcal/mol
2,ACTTTCACGTGGTTGG,0.21 kcal/mol
3,TGGCGCACGTGCTGGT,-0.09 kcal/mol
4,TGGTACACGTGTGATC,0.15 kcal/mol
5,TGTAGCACGTGAGTCT,0.1 kcal/mol
6,GATGGCACGTGCGAGG,-0.01 kcal/mol
7,GTATCCACGTGTCGGG,0.19 kcal/mol
8,TTCTGCACGTGTTGTC,0.06 kcal/mol
9,TAGCCCACGTGTGGGG,-0.1 kcal/mol
10,GGGATCACGTGCTAGT,0.11 kcal/mol
11,ATAAGCACGTGCTGTT,-0.15 kcal/mol
12,GAGGTCACGTGTGAAG,0.12 kcal/mol
13,TATATCACGTGGTTAC,0.13 kcal/mol
14,GTTTTCACGTGAGATC,0.38 kcal/mol
15,TAGGGCACGTGAAGGT,0.15 kcal/mol
16,TTGTGCACGTGATAAG,0.2 kcal/mol
17,CTACTCACGTGGGGTG,0.03 kcal/mol
18,ATAATCACGTGTAGCG,0.15 kcal/mol
19,TGGGTCACGTGCGGAG,-0.05 kcal/mol
20,TGTGTCACGTGAAACT,0.2 kcal/mol
21,ATTGGCACGTGAGAGA,0.1 kcal/mol
22,AAGGTCACGTGATGAG,0.29 kcal/mol
23,TATTGCACGTGGGTCG,-0.22 kcal/mol
24,ATATGCACGTGTATTA,-0.02 kcal/mol
25,TGTGTCACGTGTATGA,0.1 kcal/mol
26,TGCTTCACGTGGGGTG,0.07 kcal/mol

row,Sequence,relative binding free energy
1,CGTAACACGTGGGGTC,-0.17 kcal/mol
2,CATAGCACGTGGGATT,-0.09 kcal/mol
3,GCTGTCACGTGTGATG,0.14 kcal/mol
4,CAAGACACGTGTGTGT,0.04 kcal/mol
5,AGTTACACGTGCGGGA,0.07 kcal/mol
6,CGGTTCACGTGATTTG,0.35 kcal/mol
7,TGTTACACGTGGAAGA,0.23 kcal/mol
8,AAGTCCACGTGTTTGT,-0.03 kcal/mol
9,TGGCGCACGTGCGGAT,-0.04 kcal/mol
10,TGTATCACGTGTATAG,0.11 kcal/mol
11,TTAGCCACGTGATCGG,0.1 kcal/mol
12,CTGGGCACGTGCGGTC,-0.18 kcal/mol
13,TCGTTCACGTGAGATA,0.56 kcal/mol
14,TCAGGCACGTGTAGGG,-0.05 kcal/mol
15,TCTAGCACGTGTTGAT,0 kcal/mol
16,GTTCACACGTGGGGGA,0.09 kcal/mol
17,TGAGGCACGTGGGCAG,-0.26 kcal/mol
18,CCGGTCACGTGGCGGG,0.09 kcal/mol
19,CGTTGCACGTGTTGTT,-0.07 kcal/mol
20,TCTGTCACGTGGGGCA,-0.06 kcal/mol
21,TTATGCACGTGTGTAG,0.06 kcal/mol
22,CTCTACACGTGGTTGG,0.03 kcal/mol
23,TAGGGCACGTGGTCCT,-0.21 kcal/mol
24,TTGAGCACGTGCATTT,0 kcal/mol
25,TGACGCACGTGTGAGG,0.01 kcal/mol
26,AAGGGCACGTGAGGCT,-0.08 kcal/mol

row,Sequence,relative binding free energy
1,ATGGCCACGTGCAGGG,-0.12 kcal/mol
2,AAGGGCACGTGTGGGG,-0.03 kcal/mol
3,GAGGTCACGTGGGCCG,-0.05 kcal/mol
4,TTCTGCACGTGTGGAT,-0.06 kcal/mol
5,TATTGCACGTGATGTC,0.18 kcal/mol
6,CCTTTCACGTGGTGGT,0.14 kcal/mol
7,TATGGCACGTGTTGGA,-0.05 kcal/mol
8,CAAGTCACGTGGGATG,0.08 kcal/mol
9,CTGGACACGTGTTCGG,0.02 kcal/mol
10,GATGACACGTGTGTGT,0.05 kcal/mol
11,CCAGTCACGTGGGGAG,0.01 kcal/mol
12,TTAATCACGTGTAATA,0.17 kcal/mol
13,GTGAGCACGTGGGTAT,-0.15 kcal/mol
14,AGGGGCACGTGCGAGC,-0.23 kcal/mol
15,TTAGTCACGTGAGTCA,0.29 kcal/mol
16,GTTAACACGTGTTCTG,0.13 kcal/mol
17,GGTGGCACGTGATAGG,0.05 kcal/mol
18,CAGTACACGTGTTGTG,0.04 kcal/mol
19,CTAGTCACGTGGTTGT,0.01 kcal/mol
20,TGTATCACGTGACGGG,0.33 kcal/mol
21,TGTCTCACGTGCTGTT,0.16 kcal/mol
22,GCGAGCACGTGGAGGT,-0.12 kcal/mol
23,TGGCACACGTGTAGGA,0.03 kcal/mol
24,ATTTACACGTGAGTGG,0.34 kcal/mol
25,ACATTCACGTGGGTGG,0.09 kcal/mol
26,TGGCACACGTGGGGGC,0.05 kcal/mol

row,Sequence,relative binding free energy
1,GGGGCCACGTGTGGTC,-0.04 kcal/mol
2,TCATTCACGTGTGATG,0.19 kcal/mol
3,GTGTTCACGTGTGGAG,0.36 kcal/mol
4,CTAGGCACGTGGTTCG,-0.24 kcal/mol
5,GTTGGCACGTGGAGCC,-0.06 kcal/mol
6,AGTTACACGTGTTTGC,0.08 kcal/mol
7,TCAATCACGTGGGTGA,0.19 kcal/mol
8,GTCTGCACGTGCGAGG,0.01 kcal/mol
9,GACTTCACGTGTAGGG,0.22 kcal/mol
10,TTAATCACGTGGGCGT,0.05 kcal/mol
11,GCAGGCACGTGGGGTA,-0.29 kcal/mol
12,TCGGCCACGTGTGGGT,-0.02 kcal/mol
13,TTTTTCACGTGGCACA,0.18 kcal/mol
14,ATTGGCACGTGGCGGA,-0.12 kcal/mol
15,GATGACACGTGAGCGT,0.18 kcal/mol
16,GCAGTCACGTGTCGGG,0.15 kcal/mol
17,TTTTTCACGTGCGTTG,0.27 kcal/mol
18,GAGGTCACGTGTGGAT,0.24 kcal/mol
19,AGCAGCACGTGTTTGT,-0.14 kcal/mol
20,GGTGACACGTGCAGGT,0.02 kcal/mol
21,GGATCCACGTGTTTTG,0.1 kcal/mol
22,GGTTACACGTGGGCTT,0.05 kcal/mol
23,TTGTTCACGTGCTGGA,0.29 kcal/mol
24,GGAGGCACGTGGTCTT,-0.24 kcal/mol
25,TCTATCACGTGCGTGT,0.08 kcal/mol
26,TTGGTCACGTGGCGTA,-0.07 kcal/mol

row,Sequence,relative binding free energy
1,AATGTCACGTGATCTG,0.19 kcal/mol
2,ATGAGCACGTGCGGTG,-0.2 kcal/mol
3,CGAGACACGTGTTGTG,-0.13 kcal/mol
4,TTGTACACGTGCGGCG,0.04 kcal/mol
5,TTAGCCACGTGTGGGC,0.07 kcal/mol
6,AAGTTCACGTGAGTAA,0.36 kcal/mol
7,AGAGCCACGTGGTTAG,0.04 kcal/mol
8,GTTTTCACGTGGTCGG,0.24 kcal/mol
9,GTGTACACGTGTGATG,0.21 kcal/mol
10,GTGCGCACGTGGGTCG,-0.15 kcal/mol
11,CGGGGCACGTGTGATT,0.05 kcal/mol
12,GAGAGCACGTGGGTAG,-0.06 kcal/mol
13,CGATGCACGTGGCGGT,-0.15 kcal/mol
14,TTGTGCACGTGAGTGC,0.27 kcal/mol
15,GATGTCACGTGTGGGA,0.25 kcal/mol
16,TGGATCACGTGCTGGT,0.14 kcal/mol
17,AGAGTCACGTGAGCGG,0.35 kcal/mol
18,AAAGGCACGTGGGTGC,-0.33 kcal/mol
19,CGTTGCACGTGTATGA,0.06 kcal/mol
20,TTATGCACGTGAGAAT,0.25 kcal/mol
21,GTGAGCACGTGAGCGT,-0.07 kcal/mol
22,ATTGGCACGTGTAGCA,-0.06 kcal/mol
